# Laboratory results as given in ChEMBL document CHEMBL4888484, “Replenishing the malaria drug discovery pipeline: Screening and hit evaluation of the MMV Hit Generation Library 1 (HGL1) against asexual blood stage Plasmodium falciparum ,using a nano luciferase reporter read-out” (2022).
# The campaign covered roughly 4,800 compounds. About 420 (8.8%) showed an effect of 50% or more. The list shows a part of the results.
# Tested on: Plasmodium falciparum
# Assay: Confirmatory screen in NF54 nanoGlo assay, in single point, at 2uM, 72h
# Format: functional, Erythrocyte
# Conditions: timepoint 72 hour
row,SMILES,% Inhibition
1,Cc1c(CCO)c(=O)n(C)n1C(=O)c1ccc(F)cc1,2%
2,CC(C)(C)OC(=O)N1CCC(c2c(C(=O)Nc3ccc(Cl)cc3Cl)cnn2-c2cccc(F)c2)CC1,2%
3,CN(C(=O)[C@@H]1CCCN1C(=O)C1CCCC1)C1CCN(c2cnccn2)CC1,-8%
4,Cc1nc2nc(N3CCCCC3)sc2c(=O)[nH]1,-1%
5,Cc1noc(-c2cccc(F)c2)c1C(=O)NCCCN(C)c1ccccc1,-10%
6,COCCN(Cc1c(-c2ccccc2)noc1N1CCOCC1)C(=O)C1CCCC1,-3%
7,Cc1cc(C)cc(OCC(=O)NCCCN(C)C)c1,-10%
8,COc1ccc(-c2onc(C)c2C(=O)NCCOc2ccccc2)cc1,-7%
9,Cn1cc(N)c(Oc2ccc(F)cc2F)n1,2%
10,Nc1nonc1C(=O)N1CCCN(S(=O)(=O)c2cccs2)CC1,0%
11,Cc1cc(NC[C@H](O)c2cnn(C)c2)ncc1Br,9%
12,CCOc1c(Br)cc(/C=C(/NC(C)=O)C(=O)O)cc1Br,4%
13,CN(C)c1ccc(C(=O)N2CC[C@H]3NC(=O)N(Cc4ccccc4)C(=O)[C@H]32)cc1,-9%
14,c1ccc2oc(-c3ccnc4nncn34)cc2c1,-7%
15,CCCc1cc(C(=O)N2CCCCCC2)cs1,-10%
16,CCc1ccc(CS(=O)(=O)NC(=O)c2cn3ccnc3s2)cc1,6%
17,CC(C)NC(=O)N1C[C@H]2CCCC(=O)N(Cc3cccc(F)c3)[C@H]2C1,7%
18,COc1ccc(-c2nn3c([C@H]4CCCN(S(C)(=O)=O)C4)nnc3s2)c(OC)c1,-6%
19,CCc1nnc2cc(N3CCN(C(=O)c4ccc(OC)cc4)CC3)cnn12,0%
20,COc1ccc(-c2cc(C(=O)N[C@H]3CCN(c4ccc(=O)n(C)n4)C3)c(C)n2C)cc1,62%
21,CCn1c(=O)c(CCC(=O)Nc2cccc(C)c2C)nc2c(C)nn(-c3ccc(C)cc3)c21,19%
22,COc1ccc(NC(=O)CC(C)(C)CC(=O)O)cc1,2%
23,O=C(N[C@@H](N1CCCCC1)C(Cl)(Cl)Cl)c1ccc(Cl)cc1,-5%

row,SMILES,% Inhibition
1,COC(=O)c1ccc(N(C)CC(=O)Nc2cccc(C)c2C)nn1,-3%
2,Cc1nnc(-c2ccccc2NC(=O)CCC2CCC(C)O2)o1 (stereo not drawn),-21%
3,O=C(c1cc(-c2ccccc2Cl)nc2ccccc12)n1nnc2ccccc21,-5%
4,COc1cc(C(=O)NC(C)(C)c2c(C)noc2C)on1,-2%
5,CCNC(=O)C(=O)NCc1ccc(OC)cc1,-17%
6,O=C(CN1CCN(Cc2cccc(Cl)c2)C1=O)NC1CC1,-4%
7,COc1ccc(-[n+]2c(-c3ccccc3)cn3c2CCC3)cc1,77%
8,CC1CCC(N2C[C@@H](C(=O)OCC(C)(C)C)CC2=O)CC1 (stereo partly drawn),-1%
9,CCc1nn2c(c1-c1ccc(C)cc1)NC(=O)C[C@H]2C(=O)O,2%
10,O=C(CN1CCC[C@H]1C1CCCC1)NCC1CCCCC1,27%
11,CCOC(=O)[C@@H](NC(=O)Nc1ccccc1C(F)(F)F)C(F)(F)F,-1%
12,Cc1nn(CCOc2ccccc2)c(=O)n1-c1ccc(C(C)C)cc1,10%
13,COCCN(CC(N)=O)CC(=O)NCc1ccccc1F,1%
14,CCN1c2cc(C(=O)N3CCCCC3)ccc2C(=O)N2CCCCC[C@H]21,-6%
15,C[C@H](NC(=O)c1cc(C2CC2)[nH]n1)c1nccs1,-11%
16,CCN(CCO)S(=O)(=O)c1ccc2c(c1)CCO2,-7%
17,O=C(NCc1cc(F)cc(F)c1)c1csc(C(=O)N2CCCC2)n1,-8%
18,Cc1cc(N(C)CCC2CC2)nc([C@H](C)N(C)CCC2CC2)n1,52%
19,COC(C)(C)c1nc(Cn2cnc3ccccc32)no1,0%
20,O=C1OC(c2ccccc2)=NC1(Cc1ccc(Cl)cc1)Cc1ccc(Cl)cc1,-4%
21,CN(C)c1ccc(NN=C2N=NN=N2)cc1,-11%
22,COc1cc(NC(=O)CN2C(=O)N[C@](C)(c3ccc4c(c3)OCCO4)C2=O)c(OC)cc1Cl,2%
23,Cn1cccc1C(=O)NCCNC(=O)[C@@H]1CCO1,4%

row,SMILES,% Inhibition
1,Cn1cc(CCCNc2ccc(F)cn2)cn1,2%
2,O=C(C[C@@H]1C=CCC1)Nc1nc(-c2ccc(Cl)cc2)cs1,2%
3,NC(=O)[C@@H]1CCCN1C(=O)c1ccnc(OC2CCCCC2)c1,-5%
4,COc1ccc(-c2cc3nn(CC(=O)NCCC(C)C)c(=O)n3c(C)n2)cc1,-12%
5,O=C1NC(c2ccccc2)=NC12CCN(Cc1c(F)cccc1F)CC2,45%
6,CN(CC#N)C(=O)c1ccc(Br)cc1Br,-12%
7,CCOc1cc(-c2cc(-c3ccccc3O)nc3ccc4ccccc4c23)cc(Br)c1O,91%
8,CCc1nnc(-n2nc(C)cc2C)n1N1C(n2nnc3ccccc32)CCCC1n1nnc2ccccc21 (stereo not drawn),-3%
9,CC(C)c1cc(=O)[nH]c(-n2nc(C3CC3)cc2NC(=O)COc2ccc3ccccc3c2)n1,70%
10,CC(C)c1ccc(-c2nn3c(C4CCN(S(C)(=O)=O)CC4)nnc3s2)cc1,-20%
11,O=C1NC2(CCCC2)Nc2ccccc21,2%
12,O=S(=O)(c1ccc2ccccc2c1F)N1CC(CO)C1,-17%
13,CN1Cc2cc(OCC3(O)CCOCC3)ccc2C1=O,-3%
14,CC[C@](C)(NCCc1c[nH]c2ccccc12)c1nnnn1CCCN1CCOCC1,2%
15,CN(Cc1ncnn1C)C(=O)NCC1(c2cccs2)CCCCC1,-20%
16,CC1CN(C(=O)COc2ccc3oc4ccccc4c3c2)CC(C)O1 (stereo not drawn),-3%
17,CC(C)(C)c1ccc(NC(=O)N[C@@]2(C)CCS(=O)(=O)C2)nn1,-11%
18,COCCN(CC1CC=CCC1)C(=O)C1CCC(=O)N1 (stereo not drawn),-11%
19,Cc1nn(-c2ccc(NC(=O)[C@@H]3CCC(=O)N3)cn2)c(C)c1Cl,-10%
20,Cc1ccc(NC(=O)c2ccn(COc3ccccc3Cl)n2)nc1,-9%
21,CCn1nc(C)c(C(=O)Nc2sc3c(c2C(N)=O)CCC3)c1C,-14%
22,C=CCNC(=S)NS(=O)(=O)c1ccc(Cl)cc1,3%
